The full ranking holds about 33,000 sequences; the median of “E-score (-0.5 to 0.5)” is about -0.043, and the highest 2% start at about 0.37. The list shows a part of the results.
Molecular target: T1, Upc2 (UniProt Q12151)
T1 sequence: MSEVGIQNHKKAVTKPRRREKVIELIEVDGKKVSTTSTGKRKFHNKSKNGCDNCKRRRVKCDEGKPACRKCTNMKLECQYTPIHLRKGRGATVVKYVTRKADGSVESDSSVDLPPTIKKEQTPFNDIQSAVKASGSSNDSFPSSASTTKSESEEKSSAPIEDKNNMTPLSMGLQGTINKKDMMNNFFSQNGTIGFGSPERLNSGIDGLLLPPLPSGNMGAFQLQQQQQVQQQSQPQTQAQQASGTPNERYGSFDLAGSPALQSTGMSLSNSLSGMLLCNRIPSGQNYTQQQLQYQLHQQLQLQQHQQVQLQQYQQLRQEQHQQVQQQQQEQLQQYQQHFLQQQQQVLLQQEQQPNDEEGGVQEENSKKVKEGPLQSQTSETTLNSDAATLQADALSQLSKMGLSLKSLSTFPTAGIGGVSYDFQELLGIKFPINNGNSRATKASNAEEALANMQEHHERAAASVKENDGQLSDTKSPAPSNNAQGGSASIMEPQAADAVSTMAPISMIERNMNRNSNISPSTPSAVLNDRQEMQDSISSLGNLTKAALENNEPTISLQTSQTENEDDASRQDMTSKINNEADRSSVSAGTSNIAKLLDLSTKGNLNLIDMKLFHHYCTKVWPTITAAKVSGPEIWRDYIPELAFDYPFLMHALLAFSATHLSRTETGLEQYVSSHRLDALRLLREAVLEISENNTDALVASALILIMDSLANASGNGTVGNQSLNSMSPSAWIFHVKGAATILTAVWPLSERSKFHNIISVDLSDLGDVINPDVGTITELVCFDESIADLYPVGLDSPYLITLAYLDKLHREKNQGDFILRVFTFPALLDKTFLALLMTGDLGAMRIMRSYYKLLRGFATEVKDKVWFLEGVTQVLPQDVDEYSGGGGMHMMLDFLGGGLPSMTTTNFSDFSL
Assay: PBM E-score (8-mer binding enrichment) (E-score (-0.5 to 0.5)); higher = stronger / more preferred TF binding; most listed sequences are background and not binding sites
Details: protein concentration: 200 nM; construct: GST-full length
In short: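 The E-score, a modified Wilcoxon-Mann-Whitney statistic, was computed by the Universal PBM Analysis Suite for every ungapped eight-base word pooled with its reverse complement. Scans behind it were normalised with masliner after bound GST-tagged yeast transcription factors were detected with fluorescent anti-GST. The proteins, at about 100-200 nM, had been applied to universal all-10-mer Agilent arrays made double-stranded by primer extension.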

Sequence | PBM E-score
GATAAGAA | 0.0708
TGAAGACA | -0.064
CGCGCCGA | 0.132
CCCGGCCA | -0.361
AACAAACA | -0.114
GCCAACGA | 0.097
AAATTTAG | 0.117
CCGGAGCG | 0.131
CAACGGGC | 0.00552
CCTGCGTC | -0.28
GATGTTCA | -0.334
GACGGTCC | -0.273
ACAAGTTG | -0.27
GATTGTAA | 0.0554
AAACGGAG | 0.34
CAACTTAG | -0.0348
CTGTTATA | 0.0553
ACGACGAG | 0.367
AAGCTATT | -0.0289
ACTACGCT | -0.072
TGCATCCA | -0.118
TCAGGGCA | -0.0548
CTACGCCA | -0.185
CCGAAGTC | -0.00308
GCACACCC | -0.00534

Sequence | PBM E-score
GGTAAGCA | -0.0514
ACGGGTTG | 0.226
ATGGGCGC | -0.131
TCTGTTAA | 0.0431
AAACCCCT | -0.255
ATTAGAAC | 0.0604
ACATGAGA | -0.0843
AGCACGCA | -0.103
CAGCTACA | -0.084
GCCTTGCC | -0.1
GACTAAGC | 0.0106
AATCTGAG | -0.137
CTTTAAAA | 0.133
GTGCCCAA | -0.281
GAGTATAC | 0.315
CAATACGA | 0.419
ACGGTCTG | 0.126
ACCATTCG | -0.00194
CGTAAGTC | 0.187
ATTGCAAA | 0.0233
CGTTAATA | 0.344
ATTAAGTA | 0.0513
GGGACAAC | -0.0785
CGGTTAGC | 0.195
CAATCAGG | -0.196

Sequence | PBM E-score
TATGACAA | 0.154
GACTGTCC | -0.157
CAAGCTTA | -0.0773
GCCGGCCC | -0.28
GGGAAAAC | 0.0239
CGGTAGGA | -0.111
GACCCTGC | -0.171
AGGGATAA | 0.0539
GCCGCCGA | -0.193
ATTCACGA | 0.0672
ATTTGTTG | -0.0255
ACTAGTCT | -0.182
AATGGAGA | -0.179
AGGCAAAG | -0.164
ATCTACAT | -0.131
GGGTACGA | 0.465
CCCACTTC | -0.0537
ATATCCAG | -0.0684
ATAATCCA | -0.102
ATAGGGAG | -0.154
CCGGTCGA | -0.0826
AAACATAA | 0.0218
TAAACATA | 0.0959
GCACCGGC | 0.00077
TACAAGTA | 0.0315

Sequence | PBM E-score
CGTGCCGA | 0.0383
ATCCTACG | 0.0454
AGGGCGTA | 0.18
AAGGAAAA | 0.0842
CCAGTATC | -0.00249
AAGGCGGC | -0.117
AGGGCAAT | -0.0643
ACAACGCG | 0.153
GAGTGTAA | -0.28
AGGGAACC | -0.104
CGATCCTA | 0.0242
GAGCTCGC | 0.138
ACCAGATC | -0.215
CATGACCA | -0.117
ATAATCAT | 0.103
CCCGTGCG | 0.0855
GGCTAGCA | -0.374
AACTTAAT | 0.0652
ACATAGTA | 0.159
AACATATG | 0.0351
AGGGTAAA | -0.0326
CCAATCAA | -0.0911
CTATGCGA | 0.343
CCTTGAGA | -0.252
ACATCTGC | -0.301

Sequence | PBM E-score
GGTGTCGA | -0.055
CTGAGGAC | -0.17
ATCGAACG | 0.201
AAATATGA | -0.129
ATGACGCC | -0.197
ACCTACCT | -0.099
CACGGTTC | -0.202
CCGAATTA | 0.18
AAGCACCC | -0.00602
CATAATCC | -0.0711
AGAACAGG | -0.165
TTGTTAAA | 0.0604
GCGCAGTA | 0.117
GATCGTCC | -0.151
ACTACGTC | -0.081
ATATCTTC | 0.0681
GAATGGGA | -0.131
CTTGCCCC | -0.0736
TACGAACA | 0.452
AAGCCTCT | -0.269
AAGGTGAG | -0.0732
AAGCTGCA | -0.0546
CAAATTGA | -0.147
CCCGCAAC | 0.0194
TAGATGAA | -0.0456

Sequence | PBM E-score
ACGCTAGT | 0.107
CGGTGGCC | -0.271
AAAAACTG | -0.0494
CGGCAGGA | -0.0626
GAGGCTAA | -0.168
CAACCTCA | -0.0655
CGGAAGAA | 0.0599
CTACTGCC | -0.0977
GCCCTTGA | -0.189
CCCCACTA | -0.188
CAGCATAC | 0.0244
GGGAATGA | -0.173
GAGGTGCC | -0.206
GCCACTTA | -0.13
ATCTATTG | 0.0555
TACGACTA | 0.437
AGACGCGG | -0.066
GAGTTACC | -0.0363
ACGGTTCA | 0.0683
ACGGGCTC | 0.128
AGGCACAA | -0.241
AGAGATCT | 0.0545
GAACCGTC | -0.0537
CAGAGCTC | -0.109
GCGCGACA | 0.00528

Sequence | PBM E-score
GCACCAAC | -0.142
GGAGAACA | -0.0355
CAAACCTG | -0.0155
CTAGCAAG | -0.201
CAGAGAGA | -0.0908
ATAACTGG | 0.00433
GAAGGAGA | -0.032
AAATCCAA | 0.00477
ATGGAGGA | 0.0394
AGGGCGCA | -0.162
CTGAGCGA | 0.267
GAGGCCTA | -0.0877
CACGTATC | 0.132
CAGGGTCA | -0.065
ACAATCCG | 0.0882
GGTAAAAC | 0.0926
CCTTGTGA | -0.124
CGCTGCCC | -0.178
CGGTTTCA | -0.101
CAAGGTGG | -0.0983
CACAACGA | 0.282
CAGTGCCG | -0.0125
